{"source": "PubChem BioAssay AID686979", "about": "(National Center for Advancing Translational Sciences (NCATS), 2013)", "note": "The campaign covered roughly 420,000 compounds. About 50,000 (12%) were called active. Inconclusive means that the source gave no clear call. Such entries were picked first, then a sample of the others. Calls follow the shape of the dose curve; as a rule, active = well fitted inhibition curve with a large enough effect; inconclusive = small, poorly fitted or top-dose-only effect; inactive = flat fitted curve, though single readings scatter. No potency is given beside an inconclusive call; the fits are too rough. % is scaled to controls: 0 for no effect and ±100 for the full control effect; potency is read from the fitted curve at half-maximal effect; tags tell the direction and shape of the fitted curve.", "data": [{"experiment": "qHTS for Inhibitors of human tyrosyl-DNA phosphodiesterase 1 (TDP1): qHTS in cells in presence of CPT; also: nearly all actives have a fitted effect of over 55% in size", "settings": "chicken DT40 Tdp1-/-;hTDP1 cells + 20 nM CPT, ATP luminescence, 48 h; activity change, negative = growth inhibition: at 46.2 µM (top of the series) unless noted", "summary_of_the_method": "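Chicken DT40 Tdp1-/- cells complemented with human TDP1, 400 cells/well, exposed to compounds plus 20 nM camptothecin for at least 48 h at 37 C; viability read as ATP content by CellTiter-Glo luminescence.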", "values": [{"compound": "CCN(CC)CCN1C(=O)/C(=C\\c2ccc(Cl)c([N+](=O)[O-])c2)SC1=Nc1ccc(OC)cc1", "Potency": "active: 20.6 µM"}, {"compound": "CC1(C)C2CCC1(C)C(Nc1ccccc1)C2", "note": "(stereo not given)", "Potency": "inconclusive [inhibitor, single point]"}, {"compound": "O=C(c1cc(Br)c(Br)s1)N1CCN(C/C=C/c2ccccc2)CC1", "Potency": "inactive"}, {"compound": "Cc1ccc(NCCCn2ccc(NC(=O)OCc3ccccc3)nc2=O)cc1C", "Potency": "inconclusive [inhibitor, single point]"}, {"compound": "NC(=O)c1nnsc1-c1ccc(-c2snnc2C(N)=O)cc1", "Potency": "inactive"}, {"compound": "CCOc1ccc(OCC)c(NC(=O)CN2CCN(c3cccc(C)c3)C(C)C2)c1", "note": "(stereo not given)", "Potency": "active: 14.6 µM"}, {"compound": "COC(=O)Cn1c(O)c(N=NC(=O)c2ccc3c(c2)OCO3)c2ccccc21", "Potency": "inconclusive [inhibitor, single point]"}, {"compound": "CCN(CC)c1nc(Nc2ccc([N+](=O)[O-])cc2)nc(N(CC)CC)n1", "Potency": "active: 25.9 µM"}, {"compound": "Cc1[nH]n(-c2ccccc2)c(=O)c1C(=O)c1ccc(Cl)cc1", "Potency": "inconclusive [inhibitor, single point]"}, {"compound": "COc1ccccc1CN(C)CC(=O)Nc1cccc(S(=O)(=O)N2CCCC2)c1", "Potency": "inconclusive [inhibitor, single point]"}, {"compound": "O=C(O)c1c(C(=O)O)c2ccccc2[nH]c1=O", "activity change, negative = growth inhibition": "inactive: -18.4% [at 9.04 µM]"}, {"compound": "COc1ccc(-c2cc(C(=O)NCc3cc(OC)c(OC)c(OC)c3)[nH]n2)cc1", "Potency": "inconclusive [inhibitor, single point]"}, {"compound": "CCCN1C(=O)/C(=N\\OCC(=O)NCC(F)(F)F)c2ccccc21", "Potency": "inactive"}, {"compound": "Cc1cccc(OCC(=O)Nc2c(C)ccc3nsnc23)c1C", "Potency": "active: 14.6 µM"}, {"compound": "CC(=O)N1CCC2(CCN(Cc3ccccc3)CC2)CC1", "Potency": "inactive"}, {"compound": "CCOc1ccc(-c2nc(CSCC(=O)N3CCN(c4cccc(C(F)(F)F)c4)CC3)c(C)o2)cc1", "Potency": "active: 20.6 µM"}, {"compound": "Cc1cc2c3c(c1)C1(C(=O)N3C(C)(C)CC2C)C(C#N)=C(N)Oc2cc(O)ccc21", "note": "(stereo not given)", "Potency": "inactive"}, {"compound": "CCc1nnc(NC(=O)CSc2nnc(-c3cc4ccccc4cc3O)n2CCOC)s1", "Potency": "inconclusive [inhibitor, single point]"}, {"compound": "CC1(C)NC(=O)N(CCCCOc2ccc(Br)cc2Cl)C1=O", "Potency": "inconclusive [inhibitor, single point]"}, {"compound": "Cc1ccc(C)c(NC(=O)CCN2C(=O)c3ccccc3Sc3ncccc32)c1", "Potency": "inconclusive [inhibitor, single point]"}, {"compound": "Cc1cccc(SCC(=O)Nc2ccc3c(c2)OCCO3)c1", "Potency": "inactive"}, {"compound": "CC1CCCC(NC(=O)C2CCCN2S(=O)(=O)c2cccc3nsnc23)C1C", "note": "(stereo not given)", "Potency": "inconclusive [inhibitor, single point]"}, {"compound": "O=C(Cc1c(Cl)cccc1Cl)OCC(=O)N1CCN(C(=O)c2ccco2)CC1", "Potency": "inactive"}, {"compound": "O=C(CSc1nc2ccccc2c(=O)n1-c1ccccc1)N/N=C/C=C/c1ccccc1[N+](=O)[O-]", "Potency": "inconclusive [inhibitor, single point]"}, {"compound": "CCN(CC)C(=O)c1sc(NC(=O)c2ccc(C)c([N+](=O)[O-])c2)c(C#N)c1C", "Potency": "inconclusive [inhibitor, single point]"}, {"compound": "COc1ccc(CN(CC2CCCO2)C(=O)c2cc3ccccc3oc2=O)cc1", "note": "(stereo not given)", "Potency": "inconclusive [inhibitor, single point]"}, {"compound": "O=S(=O)(NC(=S)NC1CCCCC1)c1cccs1", "Potency": "inactive"}, {"compound": "CCCCCCn1c(C(C)O)nc2ccccc21", "note": "(stereo not given)", "Potency": "inconclusive [inhibitor, single point]"}, {"compound": "CC(C)(C)SCCNS(=O)(=O)c1ccccc1", "activity change, negative = growth inhibition": "inconclusive: -31.4% [inhibitor]"}, {"compound": "O=C(Cc1ccccc1)NCC(=O)OCC(=O)c1ccc(Cl)cc1", "Potency": "inactive"}, {"compound": "O=C(Cc1n[nH]c(=O)c2ccccc12)OCC(=O)N(Cc1ccccc1)Cc1ccccc1", "Potency": "inconclusive [inhibitor, single point]"}, {"compound": "CO[C@@H]1CN(C)C(=O)c2cc(NS(=O)(=O)c3ccc(C)cc3)ccc2OC[C@H](C)N(Cc2nccs2)C[C@H]1C", "Potency": "inconclusive [inhibitor, partial curve, poor fit]"}, {"compound": "C[C@H](CO)N1C[C@H](C)[C@@H](CN(C)C(=O)Nc2ccc(C(F)(F)F)cc2)Oc2ccc(NC(=O)C3CCCCC3)cc2C1=O", "Potency": "inconclusive [inhibitor, single point]"}, {"compound": "C/C(=N\\Nc1cc(Cl)nc(C)n1)c1ccccc1", "Potency": "inconclusive [inhibitor, partial curve, poor fit]"}, {"compound": "NC(=O)c1cccc(-c2cnc3c(Nc4cccc(OC(F)(F)C(F)F)c4)nccn23)c1", "Potency": "inconclusive [inhibitor, single point]"}, {"compound": "COc1cccc(N2CCN(S(=O)(=O)c3cc(Br)cc4c3N(C(=O)C3CC3)CC4)CC2)c1", "Potency": "inconclusive [inhibitor, single point]"}, {"compound": "Cc1ccc(CC(NC(=O)C2CCCCC2)C(=O)O)cc1", "note": "(stereo not given)", "Potency": "inactive"}, {"compound": "COCCN(C(=O)COC(=O)c1cccnc1Cl)c1c(N)n(Cc2ccccc2)c(=O)[nH]c1=O", "Potency": "inactive"}, {"compound": "COc1ccc(N2CCN(C(=O)CN(c3cccc(OC)c3)S(=O)(=O)c3ccccc3)CC2)cc1", "Potency": "active: 20.6 µM"}, {"compound": "CC(=O)Nc1cccc(NC(=O)C(C)N2c3cccc4cccc(c34)S2(=O)=O)c1", "note": "(stereo not given)", "Potency": "inactive"}, {"compound": "NS(=O)(=O)c1ccc(NC(=O)CSc2n[nH]c(=O)n2C2CC2)cc1", "Potency": "inactive"}, {"compound": "Cc1cc2cc(CCNC(=O)C(=O)c3c[nH]c4ccccc34)c(=O)[nH]c2cc1C", "Potency": "active: 14.6 µM"}, {"compound": "O=C(CSc1n[nH]c(=O)n1C1CC1)Nc1cc(Cl)ccc1Oc1ccccc1", "Potency": "active: 16.4 µM"}, {"compound": "Cc1ccc(-c2n[nH]c(=S)c3ccccc23)cc1S(=O)(=O)NCC1CCCO1", "note": "(stereo not given)", "Potency": "inconclusive [inhibitor, full curve]"}, {"compound": "C=CCn1c(CNS(=O)(=O)c2ccc(Br)cc2)n[nH]c1=S", "Potency": "inconclusive [inhibitor, single point]"}]}]}
